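Growth conditions: 96-well plates. Treatment: test compound, 48 hours, 5 concentrations. Analysis: linear interpolation between bracketing concentrations; unreached endpoints set to highest concentration. Abbreviation: GI50, concentration required for 50% inhibition of growth. The concentration for full growth arrest is given as TGI.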
tested on: NCI-H322M lung; test: growth of human tumour cells (NCI), 48 h

Question: For N#Cc1cccc(NC(=O)c2oc3ccccc3c2-c2cnn(-c3ccccc3)c2)c1, which GI50 is on record?
Answer: > 500 µM

Question: And the TGI?
Answer: > 500 µM

Question: For COC(=O)Nc1nc2cc3c(cc2s1)OCCO3, which GI50 is on record?
Answer: > 50 µM

Question: What about the TGI of the same compound?
Answer: > 50 µM

Question: For O=C(O)C1c2ccccc2C(C(=O)O)c2ccccc21 (centres undefined), which TGI is on record?
Answer: > 100 µM

Question: O=C(CCCc1ccccn1)c1ccccc1 was tested. Which TGI did it give?
Answer: > 100 µM

Question: With C[C@]12C=CC(=O)C=C1CC[C@@H]1[C@@H]2C(=O)C[C@@]2(C)[C@H]1CC[C@]2(O)C(=O)CO as the compound, how does the TGI read?
Answer: > 100 µM

Question: With CC1(C)C[C@H]2C=C(C=O)[C@]34C[C@]3(C(=O)OC4O)[C@H]2C1 (some centres undefined) as the compound, how does the TGI read?
Answer: 50.6 µM

Question: Which GI50 does the source give for Cc1nc(/N=C(\N)NC(=O)Nc2ccccc2Cl)sc1C here?
Answer: 1.29 µM

Question: And the TGI?
Answer: > 100 µM

Question: O=C1Nc2ccccc2Nc2nc3cccccc-3c21 was tested. Which TGI did it give?
Answer: > 100 µM

Question: Cc1ccc(S(=O)(=O)Oc2cc(S(=O)(=O)O)cc3cc(S(=O)(=O)O)cc(N)c23)cc1 was tested. Which TGI did it give?
Answer: > 100 µM

Question: How did the TGI turn out when CCN(CC)C(=S)SC1CCOP(=O)(N(CCCl)CCCl)N1C (centres undefined) was run?
Answer: > 100 µM

Question: With C#CCOC(=O)C(N)CSSCC(N)C(=O)O (centres undefined) as the compound, how does the TGI read?
Answer: > 100 µM

Question: With C[C@@H](NC(=O)OC1C=CC2(CC1)C(=O)N(C)c1ccccc12)c1cccc2ccccc12 (some centres undefined) as the compound, how does the TGI read?
Answer: > 25 µM

Question: Which results are given for CCC[CH2][Sn]([CH2]CCC)([O]C(=O)c1nccnc1N)[O]C(=O)c1nccnc1N?
Answer: GI50: 1.78 µM; TGI: 3.22 µM

Question: CCCC(=O)OC[n+]1cccc(-c2c(COC(=O)NC(C)C)c(COC(=O)NC(C)C)c3n2CCC3)c1 was tested. Which TGI did it give?
Answer: > 100 µM

Question: For OCC1OC(n2nc(-c3ccccc3)nc2-c2cnccn2)C(O)C1O (centres undefined), which TGI is on record?
Answer: > 100 µM

Question: CC1(C)C(=S)C(C)(C)C1=S was tested. Which TGI did it give?
Answer: > 100 µM

Question: For Cc1ccccc1N=Nc1c(O)[nH]c2ccccc12, which TGI is on record?
Answer: > 100 µM

Question: Oc1c(-c2ccccc2)sc2ccccc12 was tested. Which TGI did it give?
Answer: 68.6 µM

Question: Which GI50 does the source give for CCCCN(CCCC)CCCN=c1nc2c(c(N)n1-c1ccccc1)c(=S)n(-c1ccccc1)c(=S)n2-c1ccccc1 here?
Answer: 1.69 µM

Question: What about the TGI of the same compound?
Answer: 3.82 µM

Question: Which TGI does the source give for O=C(O)C#CCO here?
Answer: > 100 µM

Question: C=C(C)[C@@H]1CCC2=C[C@@H](OC2=O)[C@@H](C(=C)C)C(=O)/C=C(/C)C(=O)C1 was tested. Which GI50 did it give?
Answer: 27.6 µM

Question: What about the TGI of the same compound?
Answer: 83.7 µM

Question: What does the source list for Clc1ccc(-c2nn3ncccc3c2-c2ccnc(Nc3ccccc3)n2)cc1?
Answer: GI50: 8.45 µM; TGI: > 25 µM

Question: With Cc1c(CCCl)c(N=[N+]=[N-])n2c(nc3ccccc32)c1C#N as the compound, how does the TGI read?
Answer: 9.43 µM

Question: CC(=O)OC(C)(C)N=Nc1ccc(Br)cc1 was tested. Which TGI did it give?
Answer: > 100 µM

Question: How did the TGI turn out when Cc1c(C(=O)O)c2cc3ccccc3cc2c(=O)n1C was run?
Answer: > 10 µM

Question: How did the GI50 turn out when O=C1/C(=C\c2coc3ccccc3c2=O)c2ccccc2N1c1c(Cl)cccc1Cl was run?
Answer: 5.85 µM

Question: And the TGI?
Answer: > 100 µM

Question: What does the source list for COc1cc(C2CC(c3cc(C)ccc3C)=NN2c2ccc(S(=O)(=O)NC(=O)NCc3ccccc3)cc2)cc(OC)c1OC (centres undefined)?
Answer: GI50: 5.41 µM; TGI: 26.2 µM

Question: For CCCCCC(=O)OCC1(CO)C/C(=C\CC(C(C)C)C(C)C)C(=O)O1 (centres undefined), which TGI is on record?
Answer: > 100 µM

Question: COC(=O)/C=C1/N=C(N(C)/N=C/c2ccccc2)NC1=O was tested. Which TGI did it give?
Answer: > 100 µM

Question: How did the TGI turn out when [N-]=[N+]=Nc1c([N+](=O)[O-])c(Cl)nc2ccccc12 was run?
Answer: 23.8 µM

Question: For CC(C)[Si](OC1=C(C(=O)N(C)c2ccccc2Cl)CCC1)(C(C)C)C(C)C, which TGI is on record?
Answer: 32.5 µM

Question: For CC[CH2][Sn]([Cl])([Cl])[CH2]CC, which GI50 is on record?
Answer: 16 µM

Question: What about the TGI of the same compound?
Answer: 32 µM

Question: COC(=O)[C@@]1(C)CC[C@]2(C)CC[C@]3(C)C4=CC=C5C(=CC(=O)C(O)=C5C)[C@]4(C)CC[C@@]3(C)[C@@H]2C1 was tested. Which GI50 did it give?
Answer: 0.584 µM

Question: And the TGI?
Answer: 1.92 µM

Question: For C=C1CC(Cn2cc(C)c(=O)[nH]c2=O)(c2ccc(-c3ccccc3)cc2)OC1=O (centres undefined), which TGI is on record?
Answer: 18.7 µM

Question: COc1cc2cc[n+]3c4cc(OC)c(OC)cc4c(C)cc3c2cc1OC was tested. Which TGI did it give?
Answer: > 100 µM

Question: What does the source list for C#CCNC(=O)CC[C@]1(C)[C@H]2CC[C@@H]3[C@@H]([C@@](C)(O)CCC=C(C)C)CC[C@@]3(C)[C@]2(C)CC[C@H]1C(=C)C?
Answer: GI50: > 100 µM; TGI: > 100 µM

Question: With CN(C)c1ccc(/C=C(\NC(=O)c2ccccc2)C(=O)Nc2ccccc2C(=O)O)cc1 as the compound, how does the TGI read?
Answer: > 100 µM

Question: With Cc1cc(C)cc(Sc2c([N+](=O)[O-])ncn2C)c1 as the compound, how does the TGI read?
Answer: > 100 µM

Question: CCOC(=O)c1cc(C2CCN(Cc3ccccc3)C2=O)c(C(=O)C(=[N+]=[N-])C(C)=O)[nH]1 (centres undefined) was tested. Which TGI did it give?
Answer: > 100 µM

Question: Which GI50 does the source give for C#COc1cccc(Nc2ncnc3ncc(NC(=O)CCl)cc23)c1 here?
Answer: > 62.5 µM

Question: And the TGI?
Answer: > 62.5 µM

Question: With NCC1OC(OC2C(CO)OC(OC3C(O)C(N)CC(N)C3OC3OC(CO)C(O)C(O)C3N)C2O)C(N)C(O)C1O (centres undefined) as the compound, how does the GI50 read?
Answer: > 50 µg/mL

Question: What about the TGI of the same compound?
Answer: > 50 µg/mL

Question: Which results are given for COc1ccc(C2=C(c3cc(OC)c(OC)c(OC)c3)C(=O)CC2)cc1?
Answer: GI50: 6.84 µM; TGI: > 100 µM

Question: For COc1ccc([N-]/C(=N\n2c(=O)c(C)nn(C)c2=S)N(c2ccc(OC)cc2)c2nn3c(=O)c(C)n[n+](C)c3s2)cc1, which TGI is on record?
Answer: > 100 µM

Question: How did the TGI turn out when CC(C)CC(=O)NC(NC(C)C)(C(F)(F)F)C(F)(F)F was run?
Answer: > 100 µM

Question: Which TGI does the source give for CC(C)=CCc1c(C)cc2cc3c(c(O)c2c1O)C(O)=CC(=O)C3(CC=C(C)C)C/C=C(\C)CO (centres undefined) here?
Answer: 69.6 µM

Question: How did the GI50 turn out when N#CN1CCC[C@H]1C(=O)N1CCc2c(-c3[nH]nc4ncccc34)cccc21 was run?
Answer: 0.0429 µM

Question: And the TGI?
Answer: 18.2 µM

Question: With O=C1c2ccccc2-c2c1c1ccccc1c(=O)n2CCCN1CCN(CCCn2c3c(c4ccccc4c2=O)C(=O)c2ccccc2-3)CC1 as the compound, how does the GI50 read?
Answer: > 100 µM

Question: And the TGI?
Answer: > 100 µM

Source: PubChem BioAssay (NCI)
